For 31 molecules, binding signal results are on record in article PMC9911399, “Two distinct binding modes provide the RNA-binding protein RbFox with extraordinary sequence specificity”.

Changes are numbered by the printed parent chain; changes in the protein carry UniProt numbers. The list shows a part of the results.

T1: RBFOX1 RRM RbFoxmut (Fox-RRM*) (Homo sapiens, UniProt Q9NWB1 109-208, R118D;E147R;N151S;E152T)
T1 sequence: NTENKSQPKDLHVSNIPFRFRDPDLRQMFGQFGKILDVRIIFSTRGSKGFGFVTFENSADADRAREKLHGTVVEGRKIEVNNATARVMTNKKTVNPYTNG

B1: CGACCCA (DNA:RNA)
RNA: GGGAGACCGGAAUUCAGAUUGUCCCGACCCAUUAAAUCCCGUCGUAGCCACCA
DNA 1: CAATCTGAATTCCGGTCTCCC
DNA 2: TGGTGGCTACGACGGGATT
B2: ACUGACU (DNA:RNA)
RNA: B1 RNA with C25A, G26C, A27U, C28G, C29A, A31U
DNA 1: CAATCTGAATTCCGGTCTCCC
DNA 2: TGGTGGCTACGACGGGATT
B3: UUUGAAC (DNA:RNA)
RNA: GGGAGACCGGAAUUCAGAUUGUCCUUUGAACUUAAAUCCCGUCGUAGCCACCA
DNA 1: CAATCTGAATTCCGGTCTCCC
DNA 2: TGGTGGCTACGACGGGATT
B4: UGAAAGC (DNA:RNA)
RNA: B3 RNA with U26G, U27A, G28A, A30G
DNA 1: CAATCTGAATTCCGGTCTCCC
DNA 2: TGGTGGCTACGACGGGATT
B5: AUACCAU (DNA:RNA)
RNA: B1 RNA with C25A, G26U, C30A, A31U
DNA 1: CAATCTGAATTCCGGTCTCCC
DNA 2: TGGTGGCTACGACGGGATT
B6: GUAUAGA (DNA:RNA)
RNA: B1 RNA with C25G, G26U, C28U, C29A, C30G
DNA 1: CAATCTGAATTCCGGTCTCCC
DNA 2: TGGTGGCTACGACGGGATT
B7: AUGGUCG (DNA:RNA)
RNA: B3 RNA with U25A, U27G, A29U, A30C, C31G
DNA 1: CAATCTGAATTCCGGTCTCCC
DNA 2: TGGTGGCTACGACGGGATT
B8: UACGAUG (DNA:RNA)
RNA: B3 RNA with U26A, U27C, A30U, C31G
DNA 1: CAATCTGAATTCCGGTCTCCC
DNA 2: TGGTGGCTACGACGGGATT
B9: GCUUCAA (DNA:RNA)
RNA: B1 RNA with C25G, G26C, A27U, C28U, C30A
DNA 1: CAATCTGAATTCCGGTCTCCC
DNA 2: TGGTGGCTACGACGGGATT
B10: AAGGGUA (DNA:RNA)
RNA: B1 RNA with C25A, G26A, A27G, C28G, C29G, C30U
DNA 1: CAATCTGAATTCCGGTCTCCC
DNA 2: TGGTGGCTACGACGGGATT
B11: AGUUUCG (DNA:RNA)
RNA: B1 RNA with C25A, A27U, C28U, C29U, A31G
DNA 1: CAATCTGAATTCCGGTCTCCC
DNA 2: TGGTGGCTACGACGGGATT
B12: GCAGUUU (DNA:RNA)
RNA: B1 RNA with C25G, G26C, C28G, C29U, C30U, A31U
DNA 1: CAATCTGAATTCCGGTCTCCC
DNA 2: TGGTGGCTACGACGGGATT
B13: CCAGUAU (DNA:RNA)
RNA: B1 RNA with G26C, C28G, C29U, C30A, A31U
DNA 1: CAATCTGAATTCCGGTCTCCC
DNA 2: TGGTGGCTACGACGGGATT
B14: AUACCCA (DNA:RNA)
RNA: B1 RNA with C25A, G26U
DNA 1: CAATCTGAATTCCGGTCTCCC
DNA 2: TGGTGGCTACGACGGGATT
B15: AAGGGUU (DNA:RNA)
RNA: B3 RNA with U25A, U26A, U27G, A29G, A30U, C31U
DNA 1: CAATCTGAATTCCGGTCTCCC
DNA 2: TGGTGGCTACGACGGGATT
B16: CUUAACC (DNA:RNA)
RNA: B3 RNA with U25C, G28A, A30C
DNA 1: CAATCTGAATTCCGGTCTCCC
DNA 2: TGGTGGCTACGACGGGATT
B17: CGUCGUC (DNA:RNA)
RNA: B1 RNA with A27U, C29G, C30U, A31C
DNA 1: CAATCTGAATTCCGGTCTCCC
DNA 2: TGGTGGCTACGACGGGATT
B18: CUAGCAG (DNA:RNA)
RNA: B1 RNA with G26U, C28G, C30A, A31G
DNA 1: CAATCTGAATTCCGGTCTCCC
DNA 2: TGGTGGCTACGACGGGATT
B19: CUAUUCA (DNA:RNA)
RNA: B1 RNA with G26U, C28U, C29U
DNA 1: CAATCTGAATTCCGGTCTCCC
DNA 2: TGGTGGCTACGACGGGATT
B20: GCACUCG (DNA:RNA)
RNA: B1 RNA with C25G, G26C, C29U, A31G
DNA 1: CAATCTGAATTCCGGTCTCCC
DNA 2: TGGTGGCTACGACGGGATT
B21: ACGAUUU (DNA:RNA)
RNA: GGGAGACCGGAAUUCAGAUUGUCCACGAUUUUUAAAUCCCGUCGUAGCCACCA
DNA 1: CAATCTGAATTCCGGTCTCCC
DNA 2: TGGTGGCTACGACGGGATT
B22: AAGACAU (DNA:RNA)
RNA: B21 RNA with C26A, U29C, U30A
DNA 1: CAATCTGAATTCCGGTCTCCC
DNA 2: TGGTGGCTACGACGGGATT
B23: UGCAUGA (DNA:RNA)
RNA: B21 RNA with A25U, C26G, G27C, U30G, U31A
DNA 1: CAATCTGAATTCCGGTCTCCC
DNA 2: TGGTGGCTACGACGGGATT
B24: UCGGCUC (DNA:RNA)
RNA: B21 RNA with A25U, A28G, U29C, U31C
DNA 1: CAATCTGAATTCCGGTCTCCC
DNA 2: TGGTGGCTACGACGGGATT
B25: UGCUAAU (DNA:RNA)
RNA: B3 RNA with U26G, U27C, G28U, C31U
DNA 1: CAATCTGAATTCCGGTCTCCC
DNA 2: TGGTGGCTACGACGGGATT
B26: GCUUCGG (DNA:RNA)
RNA: B21 RNA with A25G, G27U, A28U, U29C, U30G, U31G
DNA 1: CAATCTGAATTCCGGTCTCCC
DNA 2: TGGTGGCTACGACGGGATT
B27: AAAACGC (DNA:RNA)
RNA: B21 RNA with C26A, G27A, U29C, U30G, U31C
DNA 1: CAATCTGAATTCCGGTCTCCC
DNA 2: TGGTGGCTACGACGGGATT
B28: ACGCCAC (DNA:RNA)
RNA: B21 RNA with A28C, U29C, U30A, U31C
DNA 1: CAATCTGAATTCCGGTCTCCC
DNA 2: TGGTGGCTACGACGGGATT
B29: AUCCGUG (DNA:RNA)
RNA: B21 RNA with C26U, G27C, A28C, U29G, U31G
DNA 1: CAATCTGAATTCCGGTCTCCC
DNA 2: TGGTGGCTACGACGGGATT
B30: CGGAUUG (DNA:RNA)
RNA: B21 RNA with A25C, C26G, U31G
DNA 1: CAATCTGAATTCCGGTCTCCC
DNA 2: TGGTGGCTACGACGGGATT
B31: UGCGCAG (DNA:RNA)
RNA: B3 RNA with U26G, U27C, A29C, C31G
DNA 1: CAATCTGAATTCCGGTCTCCC
DNA 2: TGGTGGCTACGACGGGATT

For the assay, the target named is T1, RBFOX1 RRM RbFoxmut (Fox-RRM*). As to the kind of experiment: EMSA; HiTS-Eq, 1 nM pool, 10 min; buffer printed only for the single-RNA assays: 10 mM Tris pH 7.5, 150 mM NaCl, 3.4 mM EDTA, 0.001% NP-40, 30 C. The following applies: tags: His6 N-terminal (pET28a); label: 5' 32P. The essentials:
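These values rest on relative association constants, computed from read-count changes of each RNA species versus the control reaction and normalised to the cognate motif. Reads came from free RNA recovered by 8% native PAGE after purified RbFox RRM (wild type or mutant) at increasing concentrations was equilibrated for 10 min in 50 µL with 1 nM of a 5′-radiolabelled pool with 7 randomized nucleotides and DNA-annealed flanks.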
For B1, the binding signal was 0.0982 KA relative to UGCAUGU.

On to B2, for which the binding signal is 0.0912 KA relative to UGCAUGU.

Regarding B3, the binding signal was 0.0705 KA relative to UGCAUGU.

Turning to B4, the binding signal is 0.0716 KA relative to UGCAUGU.

For B5, the binding signal is 0.092 KA relative to UGCAUGU.

With B6, the binding signal is 0.12 KA relative to UGCAUGU.

Turning to B7, the binding signal was 0.213 KA relative to UGCAUGU.

Regarding B8, the binding signal is 0.0695 KA relative to UGCAUGU.

Consider B9, for which the binding signal is 0.0916 KA relative to UGCAUGU.

Consider B10, for which the binding signal was 0.15 KA relative to UGCAUGU.

Consider B11, for which the binding signal was 0.139 KA relative to UGCAUGU.

As for B12, the binding signal was 0.0614 KA relative to UGCAUGU.

Consider B13, for which the binding signal is 0.108 KA relative to UGCAUGU.

Turning to B14, the binding signal is 0.094 KA relative to UGCAUGU.

For the molecule B15, the binding signal is 0.0918 KA relative to UGCAUGU.

On to B16, for which the binding signal was 0.0602 KA relative to UGCAUGU.

On to B17, for which the binding signal is 0.186 KA relative to UGCAUGU.

Turning to B18, the binding signal was 0.0866 KA relative to UGCAUGU.

Consider B19, for which the binding signal is 0.0905 KA relative to UGCAUGU.

Turning to B20, the binding signal was 0.0787 KA relative to UGCAUGU.

Regarding B21, the binding signal is 0.0913 KA relative to UGCAUGU.

Turning to B22, the binding signal is 0.0714 KA relative to UGCAUGU.

Consider B23, for which the binding signal is 0.692 KA relative to UGCAUGU.

As for B24, the binding signal was 0.0985 KA relative to UGCAUGU.

As for B25, the binding signal is 0.0977 KA relative to UGCAUGU.

Take B26: the binding signal was 0.0897 KA relative to UGCAUGU.

B27: the binding signal was 0.0603 KA relative to UGCAUGU.

On to B28, for which the binding signal is 0.0804 KA relative to UGCAUGU.

For B29, the binding signal was 0.12 KA relative to UGCAUGU.

With B30, the binding signal is 0.522 KA relative to UGCAUGU.

Turning to B31, the binding signal is 0.0904 KA relative to UGCAUGU.
